Laboratory results from the supplement of paper PMC3724861.
Some of the results follow.

Test system: T1, Caupolican (Caup) homeodomain DNA-binding domain
T1 sequence: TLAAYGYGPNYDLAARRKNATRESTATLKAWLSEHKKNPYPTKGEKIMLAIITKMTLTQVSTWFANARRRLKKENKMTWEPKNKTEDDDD
Test: PBM E-score (8-mer, recovered from the published 9-mer minima) (E-score (dimensionless, -0.5 to 0.5)); Drosophila protein; higher = stronger relative binding preference, active = 0.31 or more
How it was run: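 Caup's homeodomain DNA-binding domain (residues 214-303) was made by in vitro transcription and translation and applied at 100 nM to custom-designed protein binding microarrays. Each value is an enrichment score that gives relative binding preference for a short DNA word, with higher meaning stronger. The 8-mer values were recovered from published 9-mer scores, each of which was the minimum of its two constituent 8-mer scores. A cutoff of 0.31 marks candidate sites.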

PBM E-score, inactive:
GCAAATAA 0.0737
CGTCTCTA -0.133
GGAGGAGA -0.106
CAAATTGC 0.052
GAACTAGA 0.0162
CCTCCCAA -0.122
CTTGAATA 0.0667
GACCAGTC -0.0802
ATGGTGAG -0.102
AGGACAGA 0.121
AGCAATGG -0.105
GCTTCTAC -0.0563
CTCCGATA -0.0748
ATTTTATA 0.0952
AGTTGTAA 0.279
ACTAGCAC 0.00511
CCGGTGAC -0.141
ACCCACGG -0.149
CCGCCTCG -0.168
ACGTGGCA -0.0482
AAATGCGA 0.0277
GGCGACGA -0.123
TTCATAAA 0.00779
ACAGGAAC 0.201
CGGGCTTC -0.289
AGTGTCGA 0.0933
GCATTGTA 0.175
GACTTATA 0.0598
ATCTCGGA -0.0126
ACACTACG 0.0988
CAATTGTC 0.146
CGTTCGAG 0.0211
ACCACGGC -0.0751
CGACGACA 0.154
AATGTCGA 0.212
GGAAGAAC -0.0269
CTACTACA 0.305
GAATTATA 0.109
CGATTGAG -0.0857
ACTATGAG -0.0216
CAACAGTG 0.0433
ACACCCCA 0.0326
ATCCTCCA -0.0861
CTATAGGA -0.00704
TCTGTTCA 0.0822
GCTGTGAC -0.00278
ACGACTAC 0.106
TCTATTAA 0.0966
AGTCCAAG -0.0262
GGAAAGAC 0.00246
GAAATTTA 0.11
ATAAAAGG 0.00438
GCTGGTGA -0.029
CCTAAGCG -0.109
AGGACAAC 0.256
GCGACCTA -0.0753
GCAATACC 0.0155

PBM E-score, active:
AGGTTGTA ≥ 0.333

PBM E-score, ≥ 0.0172:
ACGCTGCT
AGGAGTCA

PBM E-score, ≥ 0.143:
ATATGCTA
